Assay results as given in patent US20250188179A1 (ADAGENE PTE, published 2025).

Legend:
[1] = target: T1, full-length human CD137 with C-terminal 3xMyc tag displayed on yeast cells (human, UniProt Q07011 24-255); assay: KD divided by KD of parental TY21242; FACS on yeast hCD137; data batch 2
T1 construct: whole, on cells; not used; also called hCD137; not shown: C-terminal 3xMyc tag

[2] = target: T1, full-length human CD137 with C-terminal …; assay: FACS titration on yeast displaying full-length hCD137-3xMyc, no protease; data batch 2

T1 sequence (Q07011 24-255): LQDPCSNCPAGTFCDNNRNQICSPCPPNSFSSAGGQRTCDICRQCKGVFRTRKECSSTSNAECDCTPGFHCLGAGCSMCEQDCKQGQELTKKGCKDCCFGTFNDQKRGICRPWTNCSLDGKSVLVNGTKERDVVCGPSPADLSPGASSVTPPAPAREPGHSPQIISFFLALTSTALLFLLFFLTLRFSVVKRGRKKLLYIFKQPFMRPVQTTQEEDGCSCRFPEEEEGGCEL

Binder | Masking efficiency [1] [fold] | Kd [2] [nM]
TY23568 (antibody, human IgG1, kappa, Masked, uncleaved; hIgG1) heavy: EVQLVESGGGLVQPGGSLRLSCAASGFSLSTGGVGVGWIRQAPGKGLEWLALIDWADDKYYSPSLKSRLTISRDNSKNTLYLQLNSLRAEDTAVYYCARGGSDTVIGDWFAYWGQGTLVTVSS[in this place human IgG1 constant region] light: EVGSYDTDYDFCPILRHRCDSSGRSAGGGGTPLGLAGSGGSDIQLTQSPSSLSASVGDRVTITCRASQSIGSYLAWYQQKPGKAPKLLIYDASNLETGVPSRFSGSGSGTDFTLTISSLQPEDFATYYCQQGYYLWTFGQGTKVEIKRTVAAPSVFIFPPSDEQLKSGTASVVCLLNNFYPREAKVQWKVDNALQSGNSQESVTEQDSKDSTYSLSSTLTLSKADYEKHKVYACEVTHQGLSSPVTKSFNRGEC | 37 | 10.7
TY23565 (antibody, human IgG4 S228P, kappa, Masked, uncleaved; hIgG4) heavy: EVQLVESGGGLVQPGGSLRLSCAASGFSLSTGGVGVGWIRQAPGKGLEWLALIDWADDKYYSPSLKSRLTISRDNSKNTLYLQLNSLRAEDTAVYYCARGGSDTVIGDWFAYWGQGTLVTVSSASTKGPSVFPLAPCSRSTSESTAALGCLVKDYFPEPVTVSWNSGALTSGVHTFPAVLQSSGLYSLSSVVTVPSSSLGTKTYTCNVDHKPSNTKVDKRV[in this place human IgG4 Fc with S228P (EU numbers)] light: EVGSYDTDYDFCPILRHRCDSPLGLAGSGGSDIQLTQSPSSLSASVGDRVTITCRASQSIGSYLAWYQQKPGKAPKLLIYDASNLETGVPSRFSGSGSGTDFTLTISSLQPEDFATYYCQQGYYLWTFGQGTKVEIKRTVAAPSVFIFPPSDEQLKSGTASVVCLLNNFYPREAKVQWKVDNALQSGNSQESVTEQDSKDSTYSLSSTLTLSKADYEKHKVYACEVTHQGLSSPVTKSFNRGEC | 120 | 35
TY23567 (antibody, human IgG4 S228P, kappa, Masked, uncleaved; hIgG4) heavy: EVQLVESGGGLVQPGGSLRLSCAASGFSLSTGGVGVGWIRQAPGKGLEWLALIDWADDKYYSPSLKSRLTISRDNSKNTLYLQLNSLRAEDTAVYYCARGGSDTVIGDWFAYWGQGTLVTVSSASTKGPSVFPLAPCSRSTSESTAALGCLVKDYFPEPVTVSWNSGALTSGVHTFPAVLQSSGLYSLSSVVTVPSSSLGTKTYTCNVDHKPSNTKVDKRV[in this place human IgG4 Fc with S228P (EU numbers)] light: EVGSYTDNYDYCPRLRRKCYHPLGLAGSGGSDIQLTQSPSSLSASVGDRVTITCRASQSIGSYLAWYQQKPGKAPKLLIYDASNLETGVPSRFSGSGSGTDFTLTISSLQPEDFATYYCQQGYYLWTFGQGTKVEIKRTVAAPSVFIFPPSDEQLKSGTASVVCLLNNFYPREAKVQWKVDNALQSGNSQESVTEQDSKDSTYSLSSTLTLSKADYEKHKVYACEVTHQGLSSPVTKSFNRGEC | 898 | 262

More lines, in order of falling Kd [2], values ahead:

Masking efficiency [1] [fold] | Kd [2] [nM] | Binder
291 | 84.9 | TY23572 (antibody, human IgG1, kappa, Masked, uncleaved; hIgG1) heavy: EVQLVESGGGLVQPGGSLRLSCAASGFSLSTGGVGVGWIRQAPGKGLEWLALIDWADDKYYSPSLKSRLTISRDNSKNTLYLQLNSLRAEDTAVYYCARGGSDTVIGDWFAYWGQGTLVTVSS[in this place human IgG1 constant region] light: EVGSYNDYNYHCKWRPSRCHNPLGLAGSGGSDIQLTQSPSSLSASVGDRVTITCRASQSIGSYLAWYQQKPGKAPKLLIYDASNLETGVPSRFSGSGSGTDFTLTISSLQPEDFATYYCQQGYYLWTFGQGTKVEIKRTVAAPSVFIFPPSDEQLKSGTASVVCLLNNFYPREAKVQWKVDNALQSGNSQESVTEQDSKDSTYSLSSTLTLSKADYEKHKVYACEVTHQGLSSPVTKSFNRGEC
243 | 70.8 | TY23570 (antibody, human IgG1, kappa, Masked, uncleaved; hIgG1) heavy: EVQLVESGGGLVQPGGSLRLSCAASGFSLSTGGVGVGWIRQAPGKGLEWLALIDWADDKYYSPSLKSRLTISRDNSKNTLYLQLNSLRAEDTAVYYCARGGSDTVIGDWFAYWGQGTLVTVSS[in this place human IgG1 constant region] light: EVGSYTDNYDYCPRLRRKCYHSGRSAGGGGTPLGLAGSGGSDIQLTQSPSSLSASVGDRVTITCRASQSIGSYLAWYQQKPGKAPKLLIYDASNLETGVPSRFSGSGSGTDFTLTISSLQPEDFATYYCQQGYYLWTFGQGTKVEIKRTVAAPSVFIFPPSDEQLKSGTASVVCLLNNFYPREAKVQWKVDNALQSGNSQESVTEQDSKDSTYSLSSTLTLSKADYEKHKVYACEVTHQGLSSPVTKSFNRGEC
220 | 64.3 | TY23566 (antibody, human IgG4 S228P, kappa, Masked, uncleaved; hIgG4) heavy: EVQLVESGGGLVQPGGSLRLSCAASGFSLSTGGVGVGWIRQAPGKGLEWLALIDWADDKYYSPSLKSRLTISRDNSKNTLYLQLNSLRAEDTAVYYCARGGSDTVIGDWFAYWGQGTLVTVSSASTKGPSVFPLAPCSRSTSESTAALGCLVKDYFPEPVTVSWNSGALTSGVHTFPAVLQSSGLYSLSSVVTVPSSSLGTKTYTCNVDHKPSNTKVDKRV[in this place human IgG4 Fc with S228P (EU numbers)] light: EVGSYNDYNYHCKWRPSRCHNPLGLAGSGGSDIQLTQSPSSLSASVGDRVTITCRASQSIGSYLAWYQQKPGKAPKLLIYDASNLETGVPSRFSGSGSGTDFTLTISSLQPEDFATYYCQQGYYLWTFGQGTKVEIKRTVAAPSVFIFPPSDEQLKSGTASVVCLLNNFYPREAKVQWKVDNALQSGNSQESVTEQDSKDSTYSLSSTLTLSKADYEKHKVYACEVTHQGLSSPVTKSFNRGEC
211 | 61.6 | TY23569 (antibody, human IgG1, kappa, Masked, uncleaved; hIgG1) heavy: EVQLVESGGGLVQPGGSLRLSCAASGFSLSTGGVGVGWIRQAPGKGLEWLALIDWADDKYYSPSLKSRLTISRDNSKNTLYLQLNSLRAEDTAVYYCARGGSDTVIGDWFAYWGQGTLVTVSS[in this place human IgG1 constant region] light: EVGSYNDYNYHCKWRPSRCHNSGRSAGGGGTPLGLAGSGGSDIQLTQSPSSLSASVGDRVTITCRASQSIGSYLAWYQQKPGKAPKLLIYDASNLETGVPSRFSGSGSGTDFTLTISSLQPEDFATYYCQQGYYLWTFGQGTKVEIKRTVAAPSVFIFPPSDEQLKSGTASVVCLLNNFYPREAKVQWKVDNALQSGNSQESVTEQDSKDSTYSLSSTLTLSKADYEKHKVYACEVTHQGLSSPVTKSFNRGEC
81 | 23.7 | TY23571 (antibody, human IgG1, kappa, Masked, uncleaved; hIgG1) heavy: EVQLVESGGGLVQPGGSLRLSCAASGFSLSTGGVGVGWIRQAPGKGLEWLALIDWADDKYYSPSLKSRLTISRDNSKNTLYLQLNSLRAEDTAVYYCARGGSDTVIGDWFAYWGQGTLVTVSS[in this place human IgG1 constant region] light: EVGSYDTDYDFCPILRHRCDSPLGLAGSGGSDIQLTQSPSSLSASVGDRVTITCRASQSIGSYLAWYQQKPGKAPKLLIYDASNLETGVPSRFSGSGSGTDFTLTISSLQPEDFATYYCQQGYYLWTFGQGTKVEIKRTVAAPSVFIFPPSDEQLKSGTASVVCLLNNFYPREAKVQWKVDNALQSGNSQESVTEQDSKDSTYSLSSTLTLSKADYEKHKVYACEVTHQGLSSPVTKSFNRGEC
